Laboratory results as given in the supplement of paper PMC12355420.
Where a name gives a salt, the structure may show the parent alone. The list shows a part of the results. Cut-off read from the data, not from the text of the source: active = 0.5 or less and inactive = the rest. Single values are uncertain, as repeats are few or missing.

Legend:
Details in all cases: 50 µM; 24 h
[1] = tested on: HeLa VPS33A reporter cells; experiment: relative cell viability (CellMask signal) vs DMSO (fraction of DMSO); higher = less cytotoxic;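 note: primary screen of an FDA-approved drug library in HeLa reporter cells in 96-well format, CellMask signal normalized to DMSO-treated wells set as 1, under 0.5 deemed highly cytotoxic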
[2] = tested on: HeLa VPS33A R498W KI + HA-SDC1-FLAG; experiment: relative GAG core protein HA-SDC1 amount per cell number vs DMSO (fraction of DMSO); higher = more SDC1 (GAG core protein);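 note: HA-SDC1 level read out by In-Cell Western staining with an anti-HA antibody against the N-terminal tag, screening FDA-approved library drugs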
[3] = tested on: HeLa VPS33A KO + NLuc-VPS33A R498W; experiment: relative mutant VPS33A R498W amount (NanoLuc luminescence) vs DMSO (fraction of DMSO); HeLa model of a glycosaminoglycan (GAG) storage disease; KI is knock-in and KO knock-out; SDC1 is syndecan 1; higher = higher mutant VPS33A level;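 note: screen of an FDA-approved drug library, NanoLuc luminescence read after lysing the treated cells, taken as a measure of mutant VPS33A protein stability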

| SMILES | relative cell viability [1] | relative GAG core protein HA-SDC1 amount per cell number [2] | relative mutant VPS33A R498W amount [3] |
| --- | --- | --- | --- |
| NC[C@H]1O[C@H](O[C@H]2[C@H](O[C@@H]3O[C@H](CO)[C@@H](O)[C@H]3O)[C@@H](O)[C@H](N)C[C@@H]2N)[C@H](N)[C@@H](O)[C@@H]1O [Ribostamycin Sulfate] | 0.947 | inactive: 0.975 | 0.835 |
| CCc1cccc2c3c([nH]c12)C(CC)(CC(=O)O)OCC3 (stereo not given) [Etodolac] | 1.21 | inactive: 0.787 | 1.17 |
| CN1CCC(=C2c3ccccc3CCn3c(C=O)cnc32)CC1 [Alcaftadine] | 0.958 | inactive: 0.884 | 1.17 |
| O=C1CCC(N2C(=O)c3ccccc3C2=O)C(=O)N1 (stereo not given) [Thalidomide] | 1.08 | inactive: 1.29 | 1.22 |
| COCC1=C(C(=O)OC(C)OC(=O)OC(C)C)N2C(=O)[C@@H](NC(=O)/C(=N\OC)c3csc(N)n3)[C@H]2SC1 (stereo not given in full) [Cefpodoxime Proxetil] | 0.96 | inactive: 1.07 | 0.992 |
| CCC(=O)O[C@]1(C(=O)CCl)[C@@H](C)C[C@H]2[C@@H]3C[C@H](F)C4=CC(=O)C=C[C@]4(C)[C@@]3(F)[C@@H](O)C[C@@]21C [Halobetasol Propionate] | 0.833 | inactive: 1.16 | 0.85 |
| N#Cc1ccc(C(c2ccc(C#N)cc2)n2cncn2)cc1 [Letrozole] | 1.33 | inactive: 0.967 | 1.12 |
| N=C(N)NC(=O)Cc1c(Cl)cccc1Cl [Guanfacine hydrochloride] | 1.29 | inactive: 0.966 | 0.616 |
| CC(C)c1nc(CN(C)C(=O)N[C@@H](CCN2CCOCC2)C(=O)N[C@H](CC[C@H](Cc2ccccc2)NC(=O)OCc2cncs2)Cc2ccccc2)cs1 [Cobicistat (GS-9350)] | 0.719 | inactive: 0.509 | 0.276 |
| COC(=O)[C@H](c1ccccc1Cl)N1CCc2sccc2C1 [Clopidogrel] | 0.571 | active: 0.439 | 0.722 |
| C[N+](C)(C)CCO.[Cl-] [Choline Chloride] | 0.997 | inactive: 0.78 | 1.05 |
| NCCCC[C@@H]1NC(=O)[C@@H](Cc2ccc(O)cc2)NC(=O)[C@H](CC(=O)O)NC(=O)CNC(=O)[C@H](CCCN=C(N)N)NC1=O [Cyclo(RGDyK)] | 1.13 | inactive: 0.804 | 1.02 |
| CNCc1ccc(-c2[nH]c3cc(F)cc4c3c2CCNC4=O)cc1 | 0.558 | active: 0.428 | 6.08 |
| O=C1Nc2ccccc2C1=O [Isatin] | 1.07 | inactive: 1.13 | 1.55 |
| COC(=O)N[C@H](C(=O)N1CC2(CC2)C[C@H]1c1nc(-c2ccc3c(c2)C(F)(F)c2cc(-c4ccc5[nH]c([C@@H]6[C@H]7CC[C@H](C7)N6C(=O)[C@@H](NC(=O)OC)C(C)C)nc5c4)ccc2-3)c[nH]1)C(C)C [Ledipasvir] | 0.577 | inactive: 0.722 | 0.351 |
| Nc1ccn([C@@H]2O[C@H](CO)[C@@H](O)[C@@H]2O)c(=O)n1 [Cytarabine] | 1.57 | inactive: 1.19 | 0.514 |
| O=c1ccn([C@H]2C[C@H](O)[C@@H](CO)O2)c(=O)[nH]1 [2-Deoxyuridine] | 1.02 | inactive: 0.91 | 1.41 |
| COc1ccc2cc([C@H](C)C(=O)O)ccc2c1 [Naproxen Sodium] | 1.07 | inactive: 1.24 | 1.18 |
| COC(=O)/C=C/C(=O)OC [Dimethyl Fumarate] | 0.96 | active: 0.359 | 3.5 |
| O=C1O[C@H]([C@@H](O)CO)C(O)=C1O [Vitamin C] | 1.06 | inactive: 0.742 | 1.15 |
| OC[C@H]1O[C@@](CO)(O[C@H]2O[C@H](CO)[C@@H](O)[C@H](O)[C@H]2O)[C@@H](O)[C@@H]1O [sucrose] | 1.06 | inactive: 1.02 | 1.21 |
| Cc1[nH]cnc1CN1CCc2c(c3ccccc3n2C)C1=O [Alosetron Hydrochloride] | 1.16 | inactive: 1.28 | 0.892 |
| COc1cc2c(cc1OC)[C@@H]1Cc3ccc(OC)c(OC)c3CN1CC2 [Rotundine] | 1.04 | inactive: 0.743 | 0.665 |
| NCCCC(O)(P(=O)(O)O)P(=O)(O)O [Alendronate] | 0.984 | inactive: 0.925 | 0.983 |
| CCN1CCCC1CNC(=O)c1cc(S(N)(=O)=O)ccc1OC (racemic) [(RS)-(±)-Sulpiride] | 1.17 | inactive: 0.813 | 1.33 |
